# From patent US7384915B2, “Chimeric insulin-gad proteins for treating patients with type 1 diabetes or at risk of developing type 1 diabetes” (Alexion Pharmaceuticals, Inc., priority 1997, dated 2008)
# Key:
# [1] = test system: non-diabetic male NOD mice; experiment: CYTOXAN (cyclophosphamide) induced IDDM model, antigen treatment; format: in vivo, mouse; details: FIG. 4; for reduction in the incidence of diabetes compared to BSA treated control animals: 100 ug and 300 ug doses
# Text: Experimental Methods Non-obese diabetic (NOD) mice are a strain of mice that are prone to the development of diabetes, and represent an accepted model system for the study of diabetes mellitus. These mice, designated NOD/MrkTacfBR, were purchased from Taconic Farms (Germantown, N.Y.). NOD SCID mice, designated NOD/SCID, are available from the Jackson Laboratories, Bar Harbor, Me. The incidence of diabetes by 200 days of age in these mice is 80% in females and 50% in males. At 110 days of age, fewer than 15% of the male NOD mice became diabetic. […] In contrast, animals treated with either ICB or either of GAD 65 250-273 or 520-555 peptides, experienced reductions to less than 50% incidence of diabetes. The therapeutic effects of treatment with combinations of ICB and the two GAD peptides were then examined (FIG. 3).
# [2] = test system: NOD/SCID mice injected with diabetogenic spleen cells; experiment: NOD/SCID adoptive transfer model of IDDM; format: in vivo, mouse; details: IV, 300 ugs of antigen twice daily every other day, day 3 to day 9 after spleen cell transfer; FIG. 5
# Procedure: Experiments in the NOD/SCID Adoptive Transfer Model: Spleen mononuclear cells were harvested from diabetic NOD mice of recent disease onset (diabetic not more than 3 weeks) and about 35×10^6 of these spleen cells in 0.2 ml of PBS were injected intravenously into 6-8 week old NOD/SCID mice. Onset of diabetes was monitored biweekly by urine glucose testing and confirmed by blood glucose testing on day 28 relative to the time of spleen cell transfer. At day 28, these mice were sacrificed and examined histologically.
# Diabetogenic splenic mononuclear cells were harvested from newly diabetic NOD mice (onset less than 3 weeks previous). To initiate the destruction of islet beta cells and the development of diabetes, 8-12 week old NOD/SCID mice were injected intravenously with 35×10^6 diabetogenic spleen cells. The incidence and onset of diabetes were monitored biweekly by urine glucose testing and confirmed by blood glucose testing at the end of the experiment. The average onset time of diabetes after disease induction was approximately 25 days. IV treatment with IG2, IG3, or islet beta cell antigens was initiated on day 3. Animals were treated with 300 ugs of antigen twice daily every other day for a period of six days (from day 3 to day 9, where the time of spleen cell transfer was day 0).
Molecule,reduction in the incidence of diabetes compared to BSA treated control animals [1],onset of disease in NOD/SCID recipients [2],"disease incidence ([1]; 300 ug doses, BSA controls greater than 80%)","reduction of incidence of diabetes, IG2 compared with IG1 [1]"
"IG1: chimeric insulin-GAD 65 fusion protein, SEQ ID NO:1 (protein, IG1 fusion protein for hGAD65 (human glutamate decarboxylase)) [sequence of about 40 residues omitted]RREAEDLNMYAMMIARFKMFPEVKEKGMAALPRLIAFTSEKCLELAEYLYNIIKNREGYEMVFDGKPQHTNVCFWYIPPSLRTLEDNEERMSRLSKVAPVIKARMMEYGTTMVSYQPLGDKVNHHHHHH",dose-dependent reduction in the incidence of diabetes,only a slight delay in disease onset,,
"IG2: chimeric insulin-GAD 65 fusion protein, SEQ ID NO:2 (protein, IG2 fusion protein for hGAD65 (human glutamate decarboxylase)) [sequence of about 40 residues omitted]RREAEDLMNILLQYVVKSFDNMYAMMIARFKMFPEVKE[sequence of about 20 residues omitted]LKKCLELAEYLYNIIKNREGYEMVFDGKPQHTNVCFWYIPPSLRTLEDNEERMSRLSKVAPVIKARMMEYGTTMVSYQPLGDKVNHHHHHH",dose-dependent reduction in the incidence of diabetes,prevented the onset of disease,less than 12%,reduced the incidence of diabetes to a greater degree than IG 1
